Assay results from PMC6919601, “Identification of Plasmodium dipeptidyl aminopeptidase allosteric inhibitors by high throughput screening” (PLoS ONE, 2019).
Where “and” joins values, the source holds several entries; their conditions need not be identical. Equal values may be shown once. In all, about 110,000 compounds went through this assay and about 230 (0.21%) showed an effect of 50% or more. The list shows a part of the results.

The molecules below were run against DPAP1 (Plasmodium falciparum, UniProt Q8IIJ9) (assay: primary screen, percent inhibition; read by cleavage of a fluorogenic dipeptide substrate; higher = more effect of the substance).
Set-up: species or system P. falciparum D10 trophozoite lysates; single well
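Further: 30 min substrate incubation versus DMSO and 10 µM JCP410 controls.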

Chain of DPAP1 (Q8IIJ9 whole entry, looked up): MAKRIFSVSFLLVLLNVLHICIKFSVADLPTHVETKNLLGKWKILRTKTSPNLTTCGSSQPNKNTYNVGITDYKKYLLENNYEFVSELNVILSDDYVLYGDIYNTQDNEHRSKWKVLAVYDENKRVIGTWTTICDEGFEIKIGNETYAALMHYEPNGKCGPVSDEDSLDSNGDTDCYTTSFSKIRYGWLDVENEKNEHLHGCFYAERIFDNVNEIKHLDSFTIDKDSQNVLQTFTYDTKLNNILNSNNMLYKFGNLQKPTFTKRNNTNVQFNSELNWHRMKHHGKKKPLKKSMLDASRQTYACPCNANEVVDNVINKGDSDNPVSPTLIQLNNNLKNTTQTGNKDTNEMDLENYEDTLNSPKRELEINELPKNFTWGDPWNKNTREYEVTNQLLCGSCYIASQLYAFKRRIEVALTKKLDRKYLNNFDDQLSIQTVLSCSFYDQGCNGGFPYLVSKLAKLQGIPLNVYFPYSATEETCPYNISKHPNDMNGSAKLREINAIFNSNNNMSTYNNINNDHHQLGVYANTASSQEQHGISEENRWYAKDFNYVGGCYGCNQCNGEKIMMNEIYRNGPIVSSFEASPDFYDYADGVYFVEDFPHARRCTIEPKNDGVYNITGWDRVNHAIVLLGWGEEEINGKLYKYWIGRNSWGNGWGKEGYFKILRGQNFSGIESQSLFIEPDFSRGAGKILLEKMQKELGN

| Structure (SMILES) | % Inhibition @ 10 uM |
| --- | --- |
| O=C(COc1ccccc1O)NCCN1CCOCC1 | -5.28% |
| CCOC(=O)c1nn(-c2ccc(C)cc2)c(C)c1C(C)=O | 6.3% |
| CCOC(=O)N1CCC(NC(=O)Cn2ncn3nc(-c4ccc(OC)cc4)cc3c2=O)CC1 | 0.623% |
| N#CC1=C(N)Oc2[nH]nc(-c3cccs3)c2C1c1cc(F)ccc1F (stereo not drawn) | -4.65% |
| CC(SCCc1ccccn1)C(=O)O (stereo not drawn) | -8.51% |
| NC(=O)C(=O)Nc1ccc2c(c1)OCCO2 | 2.41% |
| COc1ccc2[nH]cc(CCNC(=O)C3CC3)c2c1 | -1.76% |
| CCOC(=O)c1c(C)n(Cc2ccc(OC)c(OC)c2)c2c1cc(O)c1ccccc12 | -1.24% |
| CCn1cnc2cc(NC(=O)c3ccco3)ccc21 | 0.709% |
| Cc1sc(NC(=O)COc2ccccc2C(C)C)c(C(N)=O)c1C | 1.57% |
| C/C=C/CSc1nc2c(c(=O)n(C)c(=O)n2C)n1Cc1ccccc1 | -2.68% |
| NC(=O)Cn1cnc2c(nnn2Cc2ccccc2F)c1=O | -2.16% |
| O=C(Nc1cccc(C(F)(F)F)c1)/C(=C/c1cccnc1)NC(=O)c1cccs1 | 1.01% |
| O=C1CC(NCC(O)c2ccccc2)C(=O)N1c1ccc(Br)cc1 (stereo not drawn) | -2.78% |
| CCN1C(=O)S/C(=C/c2ccc(-c3cc(C(=O)O)ccc3C)o2)C1=O | 6.79% |
| COc1ccc(C2CC(=O)C(/C=N/CCc3ccccc3)=C(O)C2)cc1OC (stereo not drawn) | 1.57% |
| CCN(CC)CCCOc1ccc(Br)cc1 | 5.06% |
| O=C(Nc1cc([N+](=O)[O-])ccc1O)c1cccc2ccccc12 | -1.74% |
| CCOc1ccc(/C=C/c2nc(C#N)c(N(C)Cc3ccccc3)o2)cc1 | 3.27% |
| O=C(Cn1nc(C(F)(F)F)c2c1CCCC2)NCCc1ccccc1 | -4.62% |
| CCOC(=O)C1=C(C)N(C2CCCCC2)C(=O)C1(NC(=O)c1cccc(OC)c1)C(F)(F)F (stereo not drawn) | 2.57% |
| O=C(COc1ccc(Cl)cc1Cl)NCCSc1nnnn1-c1ccccc1 | 0.569% |
| Cc1cc(N2CCC(C(=O)N3CCCCC3C)CC2)n2nc(C)c(-c3ccc(Cl)cc3)c2n1 (stereo not drawn) | -3.7% |
| OCCN1CCN(CC2CC=CCC2)CC1 (stereo not drawn) | -5.65% |
| Cc1nn(-c2ccccc2)c2c1C(c1ccccc1OC(C)C)C(C#N)=C(N)O2 (stereo not drawn) | -1.64% |
| CC(C)(C)C(=O)N(Cc1nc(-c2ccccc2)no1)C1CCCCC1 | 2.14% |

| Structure (SMILES) | % Inhibition @ 10 uM |
| --- | --- |
| CCc1ccc(NC(=O)c2c(Br)cnn2CC)cc1 | -5.26% |
| Fc1ccc(N2CCN(CC3CCCCC3)CC2)cc1 | -2.34% |
| Cc1ccc(C)c(OCC(=O)NCc2ccc(Cl)cc2)c1 | -6.74% |
| Cc1nc(C)c(-c2csc(Nc3ccc(N)cc3)n2)s1 | -0.711% |
| O=C(C[n+]1ccccc1)c1ccc(NC(=O)c2ccccc2)cc1 | 5.18% |
| COc1cc2c(cc1OC)C(COc1ccccc1OC)N(C(=O)c1ccccc1F)CC2 (stereo not drawn) | 4.15% |
| COc1cc([N+](=O)[O-])cc2c(CCN3C(=O)c4ccccc4C3=O)c[nH]c12 | 3.34% |
| N#CC1=C(N)OC2=C(C(=O)CCC2)C1c1ccco1 (stereo not drawn) | -3.35% |
| Cc1cc(N2CCN(C)CC2)c2ccccc2n1 | 5.73% |
| Cc1nc(NC2=NCN(CCCN3CCOCC3)CN2)nc2c(C)cccc12 | 1.91% |
| COc1ccc(C(=O)N2CCN(C(=O)c3ccncc3)CC2)cc1 | 0.587% |
| O=C(O)c1cccc(C(=O)c2cccc3ccccc23)c1 | -0.872% |
| COc1cc(NC(=O)c2cccc(Cl)c2)c(OC)cc1Cl | -2.6% |
| COc1cc(C2CC(=O)N3C(=C2C#N)SCC3(O)c2ccc(C)cc2)cc(OC)c1O (stereo not drawn) | -0.0235% |
| Clc1ccc(N2CCCC2)nn1 | -4.69% |
| O=C(CNC(=O)Cn1ccc2ccccc2c1=O)NCCCN1CCCCCC1 | 7.93% |
| Cc1ccc(CCN2CC(C(=O)NC3CCCC(C)C3C)CC2=O)cc1 (stereo not drawn) | -3.58% |
| COc1ccc(OC)c(CNC(=O)CN2Cc3ccccc3C2=O)c1 | -2.17% |
| O=C(Nc1ccc2ccccc2c1)c1ccco1 | 1.29% |
| Fc1ccc(CN2CCN(Cc3ccccc3)CC2)cc1 | -3.71% |
| O=C(CN1CCOCC1)c1ccc(C2CCCC2)cc1 | 19.7% |
| Cc1ccccc1OCC(=O)Nc1cc(Cl)c(O)c(Cl)c1 | 1.4% |
| CSc1nc(SC)c2cnn(-c3ccccc3)c2n1 | -0.0272% |
| O=C(NCCc1ccccc1)c1ccc(CNS(=O)(=O)c2cccc(Cl)c2)cc1 | 1.17% |
| CN1CC[C@@]2(O)CCCC[C@@H]2[C@H]1c1cccnc1 | -0.261% |
| Cc1ccc(C)c(S(=O)(=O)NC(C)C(=O)Nc2ccc(Cl)c(Cl)c2)c1 (stereo not drawn) | 5.61% |

| Structure (SMILES) | % Inhibition @ 10 uM |
| --- | --- |
| Cc1c(Cl)cccc1N(CC(=O)N1CCOCC1)S(=O)(=O)c1ccccc1 | -0.46% |
| COc1cc(OC)c(C2C(C#N)=C(N)Oc3[nH]nc(C)c32)cc1OC (stereo not drawn) | 0.687% |
| CN(C)CCCOc1nc2c(c(=O)n(C)c(=O)n2C)n1C | -10% and -3.77% |
| O=C(C1Cc2ccccc2CN1S(=O)(=O)c1cccs1)N1CCCCC1 (stereo not drawn) | 6.57% |
| CC1(C)CC(=O)c2c(sc3ccccc23)O1 | -4.43% |
| CCCCN(Cc1ccccc1)Cc1cc(Cl)cc(Cl)c1O | 4.8% |
| CCn1cc(/C=C(\NC(=O)c2ccccc2OC)C(=O)NCCCn2ccnc2)c2ccccc21 | -5.36% |
| COc1ccc(Cc2c(O)n3c(nc2=O)SCCC3)cc1 | 2.51% |
| COc1ccccc1/C=c1\sc2nc(-c3ccccc3Br)nn2c1=O | -4.85% |
| COc1ccc(Oc2nc3ccccc3s2)cc1 | 4.06% |
| COc1cc(/C=C2\SC(=O)NC2=O)cc(OC)c1OC | 7.62% |
| Cc1cccc(NC(=O)c2cc3ccc4cccnc4c3[nH]2)n1 | -0.528% |
| COc1c(/C=N/NC(N)=S)c(C)nn1-c1ccccc1 | -1.1% |
| CC(Oc1ccccc1)C(=O)Nc1c2c(nn1-c1cccc(Cl)c1)CS(=O)(=O)C2 (stereo not drawn) | 11.1% |
| CCc1ccc(-c2ncnn2-c2cccc(Cl)c2C)cc1 | -1.82% |
| COc1ccc(-n2nnc(-c3nc(-c4ccc(Cl)cc4)no3)c2N)cc1OC | 0.0603% |
| C=Cc1ccc(Cn2c(C)c(CNCc3ccccc3F)c(C(=O)O)c2C)cc1 | -0.23% |
| CCC[C@H](NC(=O)C1(NC(=O)c2ccc(-c3csc(N4CCN(C)CC4)n3)cc2)CCCCC1)C(=O)c1nc2ccccc2o1 | -6.46% |
| CC(C)c1ccccc1OCCN1CCNCC1 | -4.35% |
| Cc1ccc(S(=O)(=O)c2nnn3c2nc(NC2CC2)c2cc(Cl)ccc23)cc1C | 0.291% |
| CCOc1ccc(N2C(=O)CC(N3CCC(N4CCCCC4)CC3)C2=O)cc1 (stereo not drawn) | -2.89% |
| Cc1ccc(CNC(=O)Cn2nc(C)n3c(cc4occc43)c2=O)cc1 | -3.79% |
| CCN(CC)CCCCSc1ccc(O)cc1 | -1.41% |
| O=C(CSCc1cnn(-c2ccccc2)c1-n1cccc1)NCCC1=CCCCC1 | 9.77% |
| OC(Cc1ccccc1)(Cc1ccccc1)C1CN2CCC1CC2 (stereo not drawn) | 4.01% |
| O=C(Cn1ncn2cccc2c1=O)N1CCN(Cc2ccc3c(c2)OCO3)CC1 | -9.13% |

| Structure (SMILES) | % Inhibition @ 10 uM |
| --- | --- |
| O=C(O)/C=C/c1cccc(NS(=O)(=O)c2ccc(O)c(C(=O)O)c2)c1 | 3.06% |
| COc1ccccc1NC(=O)c1ccccc1NC(=O)c1ccc(C)cc1 | 9.65% |
| O=C(CSc1nc(O)c2c3c(sc2n1)CCCC3)N(CCO)CCO | -1.08% |
| Fc1ccccc1N1CCN(C2C3CC4CC(C3)CC2C4)CC1 (stereo not drawn) | 1.57% |
| CCOc1ccc(C2(C)CC(=O)NC2=O)cc1 (stereo not drawn) | -2.55% |
| N=C(NOC(=O)C1CCCCC1)c1ccccc1 | 3.59% |
| CC1(O)c2ccccc2C(=O)N1Cc1ccccc1 (stereo not drawn) | -0.467% |
| CC1=C(C(=O)OC2CCCC2)C(c2ccc(Br)cc2)CC(=O)N1 (stereo not drawn) | 4.78% |
| O=C(Nc1ccc(S(=O)(=O)N2CCc3ccccc32)cc1)C(F)(F)F | 1.37% |
| CCSC1=C(C#N)C(=O)NC(c2ccc(OC)cc2OC)S1 (stereo not drawn) | 4.93% |
| N#CCNC(=O)[C@H](Cc1c(F)cccc1F)NC(=O)c1ccc(-c2ccccc2Cl)cc1 | -3.48% |
| Cc1cccc(CNCC2CCCO2)c1 (stereo not drawn) | -3.16% |
| Cc1cccc(-n2ncc3c(N4CCN(Cc5ccccc5)CC4)ncnc32)c1 | 2.56% |
| CCOc1ccc(CCNC(=O)COCc2cc(-c3cccs3)on2)cc1 | -1.58% |
| N#CCNC(=O)[C@@H](CC(=O)N1CCOCC1)CC1CCCCC1 | -1.83% |
| CN(CC(=O)Nc1cccc(Cl)c1)S(=O)(=O)c1ccc(F)cc1 | -10.4% |
| Cc1ccc(N2C(=O)NC(=O)/C(=C/Nc3cccc(C(=O)O)c3)C2=O)cc1 | 4.32% |
| CCn1cc(CNC(=O)c2cc(-c3cc(OC)ccc3OC)nc3ccccc23)c(C)n1 | 3.94% |
| COc1ccc(C2C(C#N)=C(N)OC3=C2C(=O)CC(c2ccccc2)C3)cc1OC (stereo not drawn) | 5.58% |
| Cc1cc(NCc2ccco2)nc2cc(O)ccc12 | 5.53% |
| COc1ccc2c(c1)C(C)=CC(C)(C)N2C(=O)CN1C(=O)CCC1=O | 4.74% |
| C=CCNC(=O)/C(=C/c1ccc(C(C)C)cc1)NC(=O)c1ccccc1 | 3.66% |
| Cc1cccc(NC(=O)COc2cc(Cl)ccc2Cl)c1 | -14.3% |
| N#CC1=C(N)Oc2c(oc(CO)cc2=O)C1c1ccc(Oc2ccccc2)c(F)c1 (stereo not drawn) | 1.76% |
